Test results as given in the supplement of paper PMC11417369.
± gives the standard deviation of the averaged measurements. The list shows a part of the results.

system: PfAP2-G AP2 domain (GST-tagged); test: gcPBM binding intensity (ln(normalized median fluorescence intensity)); higher = stronger DNA binding
In short: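 In this array assay, P. falciparum DNA-binding domains with a GST tag, expressed in E. coli, were applied for 1 h to primer-extended double-stranded 36-bp intergenic genomic probes and negative controls on an Agilent 4 × 180k array. Bound protein was visualised with Alexa488 anti-GST antibody at 488 nm. Binding intensity is the highest Masliner-normalised natural-log median intensity across replicate spots of either probe orientation.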

| Sequence | gcPBM binding intensity (ln) |
| --- | --- |
| CAAAAAATTCAACACACACACACACCGATAAATAAA [CACACA_site8330] | 10.1 ± 0.16 |
| AAAATTCATATATACACACACGCACATATATATATA [CACACA_site90] | 10.4 ± 0.52 |
| GAATGTCTAATTTTGATGCACACTTTTGTGCAATTA [CACACA_site2902] | 10.2 ± 0.24 |
| AAAACTATTTGTAAAAGTACATAATAAATAAATAAA [XGTACX_site7922] | 11.2 ± 0.71 |
| ATAATGTTTTATAATACACACATTATGTATATAAAT [CACACA_site4077] | 10.03 ± 0.078 |
| TTGTCCCTATAAGGGGAACACACATAAATGAATATA [CACACA_site8250] | 11 ± 0.63 |
| TTTTTATTGTTAATTTTAATTTTTTTTTTTTAATGC [CACACA_negctrl_site162] | 9.525 ± 0.007 |
| TTGTAACCTATGCACGCACACAAGAAAAAAACAAAA [CACACA_site3775] | 10.6 ± 0.49 |
| TATATATATATATATTGTACACATTGTGTTTAAATA [XGTACX_site5104] | 11.4 ± 0.91 |
| AATAGAATGTAATATACACACATATATTTCTCTTTT [CACACA_site2630] | 9.46 ± 0.54 |
| TTTCCTTATAAAAATACACACAAACTTTAATTAAAA [CACACA_site7710] | 10.06 ± 0.078 |
| TTTCTTTTTAAATGCTGTACAAAGGGTGACGTTAAA [XGTACX_site4724] | 11.1 ± 0.7 |
| TATTACACATATTATACACACATATATTATAGATAT [CACACA_site6839] | 10.07 ± 0.085 |
| TATTCCAAATTTACTAGTACATAATCCATCCGATAA [XGTACX_site1558] | 11.1 ± 0.73 |
| CTTATATAATTCGATAGTACATATTTTTATATATAT [XGTACX_site4045] | 11 ± 0.7 |
| ATTTTTTATATTTAGTGTACATGTTTTAATTTATAA [XGTACX_site7512] | 11.5 ± 0.93 |
| ATAACTTTATTCAGTTTGCACTTTTATAACAAAAGA | 10.2 ± 0.23 |
| ATTGAATATGTAAATGCACACCAAAAAAAAAAAAAA [CACACA_site9189] | 9.94 ± 0.41 |
| TTTTTCCTATTTTTAGTGCACATATAAATAAATAAA [GTGCAC_site9821] | 10.5 ± 0.45 |
| TTTTCTTTTTTTTTTGTGCACATAATATATAATTAT | 10.6 ± 0.46 |
| ATATTTTTTAGTAAGACGAAATAAATAAATCTTTAT [CACACA_negctrl_site1778] | 9.81 ± 0.18 |
| TATATATATATAAGCACACAAACAAAAAAAATTATA [CACACA_site3897] | 10.3 ± 0.35 |
| ATCCAAACAAATAAAACATGCATAATATATATATAT [TGCATGCA_site766] | 9.83 ± 0.27 |

| Sequence | gcPBM binding intensity (ln) |
| --- | --- |
| GTAATATATACAAAATGTACAAAACAATAACATGAT [XGTACX_site8575] | 10.7 ± 0.39 |
| TTTTTTTTTAATATTTGTACACAACATGAAACATTT [XGTACX_site473] | 11.2 ± 0.78 |
| CTCAAATAATTTTTTACACACATTATTTGAAATAAG [CACACA_site1290] | 9.87 ± 0.028 |
| ATGCTTTTATAAATAATTAAAAAAAAAAAAAAAAAA [TGCATGCA_negctrl_site533] | 9.48 ± 0.57 |
| TTTTATATTCCACAAAAAATTATATAATAATAGAAC [CACACA_negctrl_site1741] | 9.955 ± 0.092 |
| TAAAATATTACGTGTACACATAAATAAAAATAAAAA [CACACA_site5066] | 11.8 ± 0.92 |
| AAGATTTGAAAAAATACACACAATAAAAAAATAAAA [CACACA_site3281] | 9.995 ± 0.064 |
| TATATATATATGTGTATACACACCTGATAAAGGTAT [CACACA_site2653] | 10.1 ± 0.12 |
| AATAAATAAAAAACATGTACAAATATAATATAGCAT [XGTACX_site6429] | 10.9 ± 0.58 |
| ATGCACTCATTGTGCACACGCATATTACGAAAAGAA [CACACA_site2638] | 10.5 ± 0.4 |
| AAAAAAAAAAAAAACACACACACACCCATACAAAAT [CACACA_site1446] | 10.2 ± 0.31 |
| TAATTGTACGCCAATACACACAGAATTATAATGTAG [CACACA_site6201] | 11.5 ± 1 |
| TATACATATGAAAATACACACATACATACCTATATA [CACACA_site6888] | 9.87 ± 0.14 |
| TATTTAACACCTTATACACACTTTCTTCCTTTTTTA [CACACA_site4590] | 10.01 ± 0.035 |
| AAATTTATATTCATTTGTACGTAATTTAAATTATAC [XGTACX_site5870] | 11.6 ± 0.94 |
| TTTTATGTAATTATTTGTACATATGCCTCTTAAACT [XGTACX_site748] | 10.9 ± 0.48 |
| ACATAAATAATAAAAACACACATATGTACATATATA [CACACA_site1913] | 11.3 ± 0.79 |
| GATATTGAGAAAGGGTGTACAAGATATTATACTATA [XGTACX_site3598] | 11.3 ± 0.77 |
| AATAGAAAAAAATAAGTGCATTTTGGTATTCATCAT [GTGCAC_site9614] | 10.06 ± 0.042 |
| TACTAGCAAATACATACACACACACCCATATACATA [CACACA_site9163] | 10.2 ± 0.23 |
| AAAAAAAAAAAGCACACACACATATGTGTATTTATA [CACACA_site6578] | 10.18 ± 0.028 |
| ACAAAATATACAAAATGTACAAAATTTACAAAATGT [XGTACX_site3544] | 10.5 ± 0.32 |
| TTTTTCTCTCTCTTATTATACAACAACAAAAAAAAA [GTGCAC_negctrl_site178] | 10.2 ± 0.57 |

| Sequence | gcPBM binding intensity (ln) |
| --- | --- |
| AGAAATATATATATATATATATGTGACAATATTTGT [TGCATGCA_negctrl_site282] | 10.2 ± 0.15 |
| TTTTTTTATTTTATTTTATTATCTTATGTATCACAA [CACACA_negctrl_site1755] | 9.825 ± 0.064 |
| ACAAAAAGGTAATTTACACACTGCATATAGGAATAA [CACACA_site2929] | 10.05 ± 0.021 |
| TAATAAGTAAAAAAATGTACCCGTTAGGTTTAATAA [XGTACX_site638] | 11.3 ± 0.88 |
| AAAATAATATTTAATACACACACCAGTTCTGCAAAT [CACACA_site3736] | 10.1 |
| ATGTATGTATATACTTGTACATATTCATATTAGTAT [XGTACX_site1118] | 10.9 ± 0.52 |
| AATGTAGCATTTTATCGTACACTTAATACAAAAAAG [XGTACX_site6214] | 11.3 ± 0.9 |
| TTTGTTCATATTATTGTGCACTTAAACGTAACAAAA [GTGCAC_site9505] | 10.6 ± 0.51 |
| TTTATATTCTTAAGTGTGCACTATATATATATATAT [GTGCAC_site9719] | 10.5 ± 0.47 |
| ACCCTATATGTAACTACACACCGCATATTGTTTACT [CACACA_site3071] | 10.26 ± 0.028 |
| TGAAATTTTTATACATGTACAAAATTAAATATAACA [XGTACX_site7324] | 10.8 ± 0.49 |
| CAATTACAAAAGAAATGTACTCGTAATAAATAAATA [XGTACX_site1126] | 11.5 ± 0.86 |
| ATATTACACATATATGCACACATTGTAGTTATTTAT [CACACA_site8843] | 10.09 ± 0.021 |
| TATAATAATAATAATAGTACGTATTATTAAAAAACT [XGTACX_site10] | 11.1 ± 0.67 |
| TTATTATGCTGAGTACGTACTTATATAAGAATAGCA [XGTACX_site2955] | 11.8 ± 1 |
| TAAGTTCACAAAAAAAAAAAAAAATAAAGAAATAAA [CACACA_negctrl_site825] | 9.69 ± 0.16 |
| AAATTATTTCCGTGTACACATAAATATATATTTTAT [CACACA_site5121] | 11.8 ± 0.83 |
| TATCATGTCTGTATTTCACACACGGATAATCATTTA [CACACA_site920] | 10.1 ± 0.14 |
| AGAAAATTAAAAAGAACACACAAATATATATAGAAT [CACACA_site3592] | 10.08 ± 0.071 |
| ATTTATATGCACCATTGTACGTTTTATAAAGTTTGG [XGTACX_site3755] | 11.4 ± 0.8 |
| ATACATATATACATACGTACTTATATACATATGTGC [XGTACX_site5268] | 10.9 ± 0.42 |
| TATTCTATATTTCTATTTAGAAAACATCCCAGTGTG [GTGCAC_negctrl_site184] | 9.9 ± 0.014 |
| ATGTATATAATAAGAACACACATATATTTAATTTAA [CACACA_site2941] | 9.91 ± 0.12 |

| Sequence | gcPBM binding intensity (ln) |
| --- | --- |
| AAAAATAAAATATATACATGCATATACATATTATAT [TGCATGCA_site668] | 9.69 ± 0.25 |
| TGTTATATTTAATATAGTACATATTATTTTATATAT [XGTACX_site70] | 10.9 ± 0.73 |
| TAATTAAATAAAAAAACACACACATATATACATATA [CACACA_site9141] | 9.92 ± 0.042 |
| TCTATTAATTAATATACACACATTAGATATAAATAT [CACACA_site7241] | 9.945 ± 0.092 |
| ACACATATATAAATATGTACATATATATATATACAT [XGTACX_site1595] | 11.2 ± 0.76 |
| ATGTGTATATATTATTGTACATATATATATATATAT [XGTACX_site4627] | 11.2 ± 0.82 |
| AAAAAACAAAAAATTACACACATATATAAATATATT [CACACA_site2317] | 9.615 ± 0.021 |
| TAATAAAGGTGTAATACACACTATAAAAAGGAATAT [CACACA_site4756] | 10.09 ± 0.014 |
| TACACCCATAGACACACACACACGCATAAAAAAAAA [CACACA_site8428] | 10.4 ± 0.4 |
| AAAAAAAAAAAAAAAAGTACTAATTGAATATTAAAC [XGTACX_site3383] | 11.5 ± 0.93 |
| ACATATATATAAATATATATATATATATATATATAT [CACACA_negctrl_site874] | 9.76 ± 0.47 |
| ATGGTAAGTATTTTATGTACATATATATTTATATAA [XGTACX_site4003] | 11.3 ± 0.79 |
| TTTTTTAACCTTTTATGTACACAATATTTAACATTT [XGTACX_site1170] | 11.6 ± 0.95 |
| ACTTACACAGTTGATGGTACACTTTTATGATTTTGT [XGTACX_site3205] | 11 ± 0.53 |
| TATATATAAAGGTGTACACATATATATATATCTGTA [CACACA_site5311] | 11.7 ± 0.98 |
| ATTTCATATTATGTAACACACAACAAGATAATCAAA [CACACA_site1960] | 10.1 ± 0.26 |
| TTTTATTTACACAGTGGTACTATTAAAAATTAATGA [XGTACX_site6737] | 11 ± 0.7 |
| ATAAGGTTACAACAAACACACAAAGGAATATACTCA [CACACA_site6108] | 10.2 ± 0.13 |
| ACAAGTTAAAATATTACACACATATAAATATATATA [CACACA_site3132] | 9.84 ± 0.099 |
| AATATTTGTTAAAGAGGTACACCATTTGGTAGGGAA [XGTACX_site2165] | 11.4 ± 0.79 |
